Screen size: about 3,200 compounds; about 75 (2%) showed an effect of 50% or more. This is one part of the list.

The assay concerns T1, S. aureus MSSA476.
T1 construct: MSSA476
On the set-up: species or system S. aureus MSSA476 (TSB) or V. cholerae SAD30 (LB); 384-well bacterial growth screen at 25 uM, OD600 relative to DMSO control. The note with it: relative growth, OD600, TSB; 25 µM; inhibitor.
`CC(Cl)C(=O)N(Cc1nnc(-c2ccccc2Cl)o1)C1CC1` (stereo not drawn) [5-B17, 2-chloro-N-{[5-(2-chlorophenyl)-1,3,4-oxadiazol-2-yl]methyl}-N-cyclopropylpropanamide]: the “% of control remaining” value was found to be 92.5319%. As for `O=C(CCl)N1CC(NC(=O)C(F)(F)F)CCC1C(F)(F)F` (stereo not drawn) [5-O18, N-[1-(2-chloroacetyl)-6-(trifluoromethyl)piperidin-3-yl]-2,2,2-trifluoroacetamide], the “% of control remaining” value amounted to 94.7177%.

For the molecule `COc1cc(CNC(=O)C(C#N)=Cc2ccco2)c2ccccc2n1` [9-I05, 2-cyano-3-(furan-2-yl)-N-[(2-methoxyquinolin-4-yl)methyl]prop-2-enamide], the “% of control remaining” value was 79.7004%. In the case of `Cn1cc(C(=O)CCl)cc1C(N)=O` [10-J06, 4-(2-chloroacetyl)-1-methyl-1H-pyrrole-2-carboxamide], the “% of control remaining” value is 112.188%.

Regarding `C=CC(=O)N1CCC(C(=O)N[C@@H](C)C(=O)NC)(c2ccccc2)CC1` [2-B16, (2S)-N-methyl-2-{[4-phenyl-1-(prop-2-enoyl)piperidin-4-yl]formamido}propanamide], the “% of control remaining” value is 105.831%. The figure for `CC(Cl)C(=O)NC(C)(C(N)=O)c1cccc(Cl)c1` (stereo not drawn) [5-J17, 2-(3-chlorophenyl)-2-(2-chloropropanamido)propanamide] is 120.583%; for `O=C(CCl)Nc1ccc(S(=O)(=O)Nc2nccs2)cc1` [4-B14, 2-chloro-N-{4-[(1,3-thiazol-2-yl)sulfamoyl]phenyl}acetamide] it is 131.872%; for `C=CC(=O)NCC1CCN(C2CC2)CC1` [1-A07, N-[(1-cyclopropylpiperidin-4-yl)methyl]prop-2-enamide] it is 104.44%. The figure for `C=CC(=O)NC1CCN(S(N)(=O)=O)CC1` [1-K18, N-(1-sulfamoylpiperidin-4-yl)prop-2-enamide] is 82.989%.

`CC(C)c1ccc(C(NC(=O)CCl)C(C)C)cc1` (stereo not drawn) [4-O14, 2-chloro-N-{2-methyl-1-[4-(propan-2-yl)phenyl]propyl}acetamide]: the “% of control remaining” value is on record as 88.0419%. Under `COc1ccc(C=C(C#N)C(N)=O)c(Cl)c1OC` [9-H14, 3-(2-chloro-3,4-dimethoxyphenyl)-2-cyanoprop-2-enamide] stands 98.2772%; under `N#CC(=Cc1ccco1)C(=O)NCc1nc(-c2ccncc2)cs1` [9-B20, 2-cyano-3-(furan-2-yl)-N-{[4-(pyridin-4-yl)-1,3-thiazol-2-yl]methyl}prop-2-enamide], 93.4831%.

(Values after PMC11995724, “Antibiotic target discovery by integrated phenotypic and activity-based profiling of electrophilic fragments” (Cell chemical biology, 2025).)
